Assay results reported in PubChem BioAssay AID488969 (Vanderbilt High Throughput Screening Facility, 2010).
In all, about 110,000 compounds were measured (“z-score”: median about -0.1, highest 2% from about 2 on). This is one part of the list. Activity calls are given as the source filed them.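 Rule for the calls: active = z-score in the third read window above 3 or below -3; inactive = the rest.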

Target: Metabotropic glutamate receptor 8 (Rattus norvegicus) (UniProt P70579)
Assay: mGluR8 Gi/Go-coupled signaling modulation – cell-based, rat, thallium flux, HTS, primary screen (AID 488969)
Details: HEK293 rat mGluR8, GIRK (G protein-gated inwardly rectifying potassium channel) thallium flux, FluoZin2; at 10 µM; stronger effect = higher value; submaximal glutamate (EC20) added with thallium

Chain of UniProt P70579 (P70579 whole entry, looked up): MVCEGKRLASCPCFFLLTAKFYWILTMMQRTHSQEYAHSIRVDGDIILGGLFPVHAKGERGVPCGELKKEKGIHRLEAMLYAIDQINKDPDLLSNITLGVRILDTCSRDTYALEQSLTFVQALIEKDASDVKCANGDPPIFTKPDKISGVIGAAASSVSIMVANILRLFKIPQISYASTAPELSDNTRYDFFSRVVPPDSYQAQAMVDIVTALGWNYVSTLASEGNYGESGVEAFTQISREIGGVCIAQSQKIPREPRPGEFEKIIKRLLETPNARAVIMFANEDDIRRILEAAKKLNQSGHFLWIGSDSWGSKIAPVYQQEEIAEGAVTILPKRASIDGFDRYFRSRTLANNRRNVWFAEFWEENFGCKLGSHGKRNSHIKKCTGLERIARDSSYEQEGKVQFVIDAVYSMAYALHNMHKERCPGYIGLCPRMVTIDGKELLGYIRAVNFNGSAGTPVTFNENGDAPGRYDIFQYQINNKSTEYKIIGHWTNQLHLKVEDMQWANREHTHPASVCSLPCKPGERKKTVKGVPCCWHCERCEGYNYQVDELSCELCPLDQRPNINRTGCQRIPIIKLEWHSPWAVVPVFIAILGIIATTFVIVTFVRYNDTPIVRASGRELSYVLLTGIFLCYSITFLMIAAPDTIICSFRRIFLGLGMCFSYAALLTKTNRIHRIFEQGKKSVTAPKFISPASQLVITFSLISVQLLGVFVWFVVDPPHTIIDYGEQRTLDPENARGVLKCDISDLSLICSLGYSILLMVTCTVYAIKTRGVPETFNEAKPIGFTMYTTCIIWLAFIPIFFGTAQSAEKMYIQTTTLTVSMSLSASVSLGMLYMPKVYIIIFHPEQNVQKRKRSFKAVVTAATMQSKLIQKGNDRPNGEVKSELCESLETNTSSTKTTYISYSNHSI

Structure (SMILES) | z-score
CC(=O)Nc1ccc(S(=O)(=O)Nc2nnc(C(C)(C)C)s2)cc1 | 0.307
O=C(/C=C/c1ccc2c(c1)OCO2)Nc1cc(S(=O)(=O)N2CCOCC2)ccc1N1CCOCC1 | -0.667
CCCCn1nc(C(=O)Oc2ccc3c(C)cc(=O)oc3c2)c2ccccc2c1=O | -1.21
Cc1ccc(Nc2nc3ccccc3o2)cc1F | 0.0121
CC1Cc2ccccc2N1C(=O)c1cc2sccc2n1Cc1ccc(F)cc1 (stereo not given) | -0.392
Cc1ccc2nc(SCC(=O)NCc3ccco3)c(C#N)cc2c1 | 0.0682
C=CCNC(=O)c1ccc2nc(-c3ccccc3)c(-c3ccccc3)nc2c1 | -0.148
CCn1c(SCC(=O)N2CCOCC2)nc2c(c1=O)SC(C)C2 (stereo not given) | -1.09
Cc1ccc(-n2nc(C)cc2Nc2ncc(Cl)cc2Cl)cc1 | 0.588
CCOc1ccc(S(=O)(=O)NCCC(=O)OC(C)C(=O)N2CCc3ccccc32)cc1 (stereo not given) | -0.474
O=C(Nc1nc(-c2ccc(-c3ccccc3)cc2)cs1)C1CCCO1 (stereo not given) | 0.31
CC(C)(C)NC(=O)CSc1ncnc2c1nnn2Cc1ccccc1Cl | 0.479
CCOC(=O)c1ccc(N2C(=O)CC(NC3CCN(C(=O)c4cccc(Cl)c4)CC3)C2=O)cc1 (stereo not given) | -0.178
CCCS(=O)(=O)NCCc1cc2c(OC)ccc(OC)c2[nH]c1=O | 0.0641
CC(=O)Oc1ccccc1/C=C1\CCOC1=O | -0.104
O=C(/C=C/c1cccc2ccccc12)NCCC1=CCCCC1 | -0.101
O=C(Nc1cc2ccccc2oc1=O)C1CCCCC1 | -0.251
Cc1ccc(C(=O)C2=C(O)C(=O)N(Cc3ccccc3)C2c2cccnc2)o1 (stereo not given) | -0.709
Cc1cc(C(=O)NCCCn2ccnc2)sc1-c1ccccc1 | -0.0356
O=c1cc(NS(=O)(=O)c2ccccc2)nc(SCc2ccc(Cl)cc2)[nH]1 | 0.485
CN(C)c1ccc(/C=C/C=C2/SC(=S)N(c3ccccc3)C2=O)cc1 | 0.46
Cc1ccc(OC(=O)CCC(=O)OCCCC(F)(F)C(F)(F)F)cc1 | -0.304

Structure (SMILES) | z-score
O=C(NC1CCCC1)C(c1c[nH]c2ccccc12)N(C(=O)Cn1nnc(-c2ccc(Cl)cc2)n1)c1ccccc1 (stereo not given) | -0.0186
CC(C)C[C@H](NC(=O)OC(C)(C)C)C(=O)N/N=C/C1=Cc2ccccc2OC1C (stereo not given in full) | -0.0272
CN1C(=O)C(O)(C2COC(C)(C)CC2=O)c2cc(Br)ccc21 (stereo not given) | 0.58
O=C(N/C(=C/c1cccc([N+](=O)[O-])c1)C(=O)N1CCCCC1)c1cccs1 | -0.275
CCc1cccc(C)c1NC(=O)c1ccoc1C | 0.147
O=C(Cn1[nH]c(=O)c2ccccc2c1=O)OCC(=O)N1CCCc2ccccc21 | -0.259
Cc1cccc(-n2c(-c3csc(C(C)C)c3)n[nH]c2=S)c1 | 2.87
Cc1ccc(NC(=O)CSc2nnc(-c3cccnc3)n2-c2ccc(C)cc2)cc1 | -0.339
COc1cc(C(C(=O)NC2CCCCC2)N(C(=O)Cc2c[nH]c3ccccc23)c2ccccc2C)cc(OC)c1OC (stereo not given) | -0.0948
O=C(COc1ccccc1)NC(NC(=S)Nc1ccccc1C(=O)O)C(Cl)(Cl)Cl (stereo not given) | -0.0437
c1cncc(-c2nc3ccccn3c2Nc2ccc3c(c2)OCCO3)c1 | -0.0135
N/C(=N\OC(=O)C12CC3CC(CC(C3)C1)C2)c1ccccn1 | 0.0978
CCOc1cccc(CNc2ccc(O)cc2)c1OCc1ccc(Cl)cc1 | 0.00371
CCOC(=O)Cc1c(C)c2c(C)nn(-c3ccccc3)c2oc1=O | -0.884
O=C(c1cc2n(n1)C(C(F)(F)F)CC(c1ccco1)N2)N1CCc2ccccc2C1 (stereo not given) | -0.156
CCOC(=O)c1c(C)[nH]c(C(=O)COC(=O)C(C)N2C(=O)C3CCCCC3C2=O)c1C (stereo not given) | -0.178
Cn1c(=O)n(CC(=O)N2CCOCC2)c2ccccc21 | 1.21
Clc1cccc(Cl)c1Cn1cc(Br)cn1 | 0.143
CCNc1nc(N)c(C(=O)c2ccc(Cl)s2)s1 | 1.03
CC1=C(C(N)=O)C(c2cccs2)n2nc(-c3cccc(Cl)c3)nc2N1 (stereo not given) | 2.14
CCC(=O)NC(=S)Nc1ccc(NC(=O)c2ccc([N+](=O)[O-])cc2)cc1 | 0.824
NC(=O)C[C@@H]1N[C@]2(C(=O)Nc3ccccc32)[C@@H]2C(=O)N(C3CCCCC3)C(=O)[C@H]12 | -0.23

Structure (SMILES) | z-score
CCOc1ccc(Nc2oc(Cc3ccccc3)nc2C#N)cc1 | -1.36
CCOC(=O)N/N=C/c1cn(CCCOc2ccc(C)cc2)c2ccccc12 | 0.276
CCCCc1ccc(NC(=O)c2c(C)noc2C)cc1 | -0.0917
c1coc(C2Nc3cccc4cccc(c34)N2)c1 | 0.186
COc1cc(C(=O)N2CCN(C/C=C/c3ccccc3)CC2)cc(OC)c1C | -0.426
CCC(C)NC(=O)c1ccccc1NC(=O)CN(c1ccc(OC)cc1)S(C)(=O)=O (stereo not given) | -0.236
O=C1c2ccccc2C(Nc2ccc(S(=O)(=O)N3CCOCC3)cc2)N1c1ccccn1 (stereo not given) | -0.244
Cc1ccc(Cl)c(OCC(=O)NCc2ccco2)c1 | -0.0225
CCCC(=O)Nc1cc(-c2nnc(OC)c3ccccc23)ccc1N1CCCCC1 | -0.148
O=C(CN1C(=O)c2ccccc2C1=O)c1ccccc1 | 0.035
Cc1cccc(SCc2noc(C(=O)NCC3CCCO3)c2C(=O)O)c1 (stereo not given) | -1.59
CSc1nc2sc(-c3ccccc3)cc2c(=O)n1N | 0.734
C=CCNC(=O)CC(=O)N/N=C/c1cccc(C)c1 | -0.0638
COc1ccc(C)cc1S(=O)(=O)Nc1cccc(SC)c1 | 0.29
COc1ccccc1CN(C)CC(=O)Nc1ccc(Cl)cc1C(F)(F)F | -0.124
Cc1cc(C(=O)N2CCN(c3ccc([N+](=O)[O-])cc3)CC2)no1 | 0.0375
CCOC(=O)c1c(C)oc2c(CC(=O)c3ccccc3)c(Cl)c(O)c(O)c12 | -0.106
Cc1cnc(NC(=O)c2ccc3c(c2)C(=O)N(Cc2ccco2)C3=O)s1 | -0.373
CCc1nn(-c2cc(Cl)ccc2OC)c2c1C(=O)CCC2 | -0.275
CC(C)(C)OC(=O)NCCc1nnc(SCc2ccc(Cl)cc2Cl)o1 | -0.311
CCN(c1ccccc1)S(=O)(=O)c1cc(NC(=O)Nc2ccccc2C#N)ccc1Cl | -0.533
Cc1cc(NC(=O)CCCSc2nc(-c3ccco3)cc(C(F)(F)F)n2)n(-c2ccccc2)n1 | -0.49

Structure (SMILES) | z-score
CSCCC(NC(=O)C12CC3CC(CC(C3)C1)C2)C(=O)OCC(=O)c1ccc(Cl)cc1 (stereo not given) | -0.227
O=C(CCC1COc2ccccc2O1)Nc1cccnc1 (stereo not given) | -0.0766
O=C(/C=C/NNC(=O)c1cccc(Br)c1)c1ccccc1 | 0.542
CC(C)Oc1ccc(C(=O)CCN2CCCCC2)cc1 | 1.59
Cc1nn(Cc2ccc(Cl)cc2Cl)c(C)c1NC(=O)Cn1nc([N+](=O)[O-])c(Cl)c1C | -0.175
O=C(Cc1ccccc1)NC(=S)Nc1cccc(C(F)(F)F)c1 | active: 4.01
Cn1nc(C(=O)Nc2sccc2C(N)=O)ccc1=O | 0.165
O=C(NCc1ccccc1)c1cccnc1N1CCOCC1 | -0.469
Nc1ccc(C(=O)c2ccccc2C(=O)O)cc1Cl | 0.363
O=C(OCC(=O)N1CCN(C(=O)c2ccco2)CC1)c1ccccc1C(=O)c1ccc(Cl)cc1 | 0.0675
O=C(CSc1nnnn1-c1cccc(F)c1)Nc1nc2ccccc2s1 | -0.0501
CCCOC1CCCN(C(=O)c2cc(Cl)c(Cl)cc2C(=O)O)C1 (stereo not given) | -1.42
CCCCc1c(O)nc2ccccn2c1=O | 0.0654
COc1cccc2sc(N(CCCN(C)C)C(=O)c3sc4ccccc4c3Cl)nc12 | -0.927
O=C(Nc1ccc(F)cc1)c1ccccc1 | -0.000317
Cc1ccc(C(C[N+](=O)[O-])c2c(C)cc3ccccn23)cc1 (stereo not given) | 0.00538
N#Cc1cc2cc3c(cc2nc1N1CCCCC1)OCCO3 | 0.0458
COC(=O)c1cc(OC)c(OC)cc1NC(=O)c1ccc(Br)o1 | -0.712
Cc1nc(C)c(CCNC(=O)c2ccccc2Br)s1 | 0.772
CN1CCN(C(=O)c2c(O)c3cccc4c3n(c2=O)CCC4)CC1 | 0.413
Cc1ccc(NC(=O)NCc2ccc3c(c2)OCO3)cc1 | -0.338
O=C(CSC1CC(=O)N(CCc2ccccc2)C1=O)Nc1ccc(Br)cc1 (stereo not given) | -0.313

Structure (SMILES) | z-score
COCCNC(=O)CCCCCN1C(=O)CCC1=O | 0.449
O=C(NC1CC2CCCC(C1)N2S(=O)(=O)c1ccccc1)c1ccco1 (stereo not given) | -0.229
COc1ccc(CC(=O)N2CCOCC2)cc1OC | -0.138
Cc1ccc(C(CC(N)=O)c2ccco2)cc1 (stereo not given) | -0.269
CCn1c(Cc2ccccc2)nnc1SCC(=O)c1cccc([N+](=O)[O-])c1 | -2.15
Cc1ccc(C(=O)OCC(=O)NCc2ccco2)cc1 | -0.195
COCC(=O)Nc1cc(C(=O)OC)cc(C(=O)OC)c1 | -1.3
O=C(CSc1nc(-c2ccco2)cc(C(F)(F)F)n1)N1CCN(c2ccc(Cl)cc2)CC1 | -0.455
Cn1c(=O)n(C)c2cc(S(=O)(=O)O)ccc21 | -0.339
CN1CCN(CC(=O)Nc2nc(-c3ccccc3)cs2)CC1 | 1.04
COC(=O)CCn1nnc(-c2cccs2)n1 | 0.584
CCOc1ccccc1N(CC(=O)Nc1ccc(S(=O)(=O)N2CCOCC2)cc1)S(=O)(=O)c1ccc(Cl)cc1 | -0.0409
COC(=O)Nc1ccc(S(=O)(=O)Nc2ccc(O)cc2)cc1 | 0.579
CCOC(=O)C1CCCN(S(=O)(=O)c2ccc(Br)s2)C1 (stereo not given) | -0.167
CCN(CC)S(=O)(=O)c1cccc(C(=O)Oc2cccnc2)c1 | 0.621
CCCCCCOC(=O)c1ccc(NC(=O)c2cc(OC)c(OC)c(OC)c2Br)cc1 | -0.208
CN1C(=O)CC(N2CCN(CC(N)=O)CC2)C1=O (stereo not given) | 0.0718
CC(=O)N1CCN(Cc2nc3cc(NC(=O)c4ccc(Cl)cc4)ccc3n2C)CC1 | -1.71
CCOC(=O)CCc1nc2ccccc2[nH]c1=O | -0.401
COc1cccc(OCCOc2ccccc2[N+](=O)[O-])c1 | -0.0515
CC(C)CC(c1nnnn1Cc1cccs1)N1CCN(c2nc3ccccc3s2)CC1 (stereo not given) | 0.328
COc1ccc(NC(=O)COC(=O)CCCc2c[nH]c3ccccc23)cc1 | -0.238
